Data: patent US20230143604A1, “QW DOSING OF GIP RECEPTOR AGONIST PEPTIDE COMPOUNDS AND USES THEREOF” (TAKEDA PHARMACEUTICAL COMPANY LIMITED, priority 2020, published 2023)
Part of at least one peptide drawing is inferred or uncertain, most often the ends. Starred links: 1 amine or outer side, 2 acyl side, 3 side chain; linkers in the order of their positions; H or OH if unused. Non-standard residues stand in square brackets, D forms with d. Residues, ends and D or L forms follow the SMILES beside them. Groups on a side chain read outwards from the residue. *: point of attachment. C18 diacid = O=C(O)CCCCCCCCCCCCCCCCC(=O)*; γGlu = O=C(O)[C@H](CCC(=O)[*:2])N[*:1]; NMeY = CN[C@@H](Cc1ccc(O)cc1)C(=O)O; AEEA = NCCOCCOCC(=O)O; Aib = CC(C)(N)C(=O)O

Columns and labels:
human GLP-1R = biological target: T1, human GLP-1R (Homo sapiens, UniProt P43220); assay: Human GLP1R agonist activity, intracellular cAMP accumulation; format: cell-based; conditions: HEK-293T cells overexpressing human GLP-1R, 1 hr, read-out: Human GLP1R cAMP EC50, HEK293T
T1 construct: HEK-293T cells overexpressing full-length human GLP-1R; FLAG (N); host or cells: HEK-293T
How it was run: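 Frozen assay-ready cells washed and resuspended at 4×10^5 cells/mL in Krebs Ringer buffer, then incubated with compound 1 hr at room temperature in the dark. cAMP read by HTRF (anti-cAMP antibody, d2-cAMP tracer). Normalised to 1 nm GLP-1 (100%) and DMSO (0%).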

female beagle dogs = assay: PYY-1119-induced vomiting in dogs; format: in vivo; conditions: 3 nmol/kg s.c., 72 hours post-dose (lower line)
Experimental: The GIPR agonist peptide compounds of the present disclosure or vehicle (0.09% [w/v] Tween 80/10% DMSO/PBS) were administered subcutaneously (sc) at 3-10 nmol/kg to female beagle dogs (10 months old), followed by sc injections with Y2R agonist ((4-imidazolecarbonyl-Ser-D-Hyp-Iva-Pya(4)-Cha-Leu(Me)-Asn-Lys-Aib-Thr-Arg-Gln-Arg-Cha-NH2), […]), […]) at 1 hour or specified hours in the table postdose. Emetic episodes were counted for 2 hours after administration (by blinded analysis).

C57BL/6J mice = assay: Oral glucose tolerance test (OGTT); format: in vivo; conditions: 3 nmol/kg s.c., 24 hours before glucose loading
How it was run: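 Peptide or vehicle given s.c. at 0.1, 0.3, 3 or 10 nmol/kg (peptide-dependent), 24 h before oral 50% dextrose at 5 ml/kg unless stated otherwise. Blood glucose read at 0, 15, 30 and 60 min. % inhibition = (1−(AUC cpd−AUC naïve)/(AUC veh−AUC naïve))×100.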

T1 sequence (P43220 24-463): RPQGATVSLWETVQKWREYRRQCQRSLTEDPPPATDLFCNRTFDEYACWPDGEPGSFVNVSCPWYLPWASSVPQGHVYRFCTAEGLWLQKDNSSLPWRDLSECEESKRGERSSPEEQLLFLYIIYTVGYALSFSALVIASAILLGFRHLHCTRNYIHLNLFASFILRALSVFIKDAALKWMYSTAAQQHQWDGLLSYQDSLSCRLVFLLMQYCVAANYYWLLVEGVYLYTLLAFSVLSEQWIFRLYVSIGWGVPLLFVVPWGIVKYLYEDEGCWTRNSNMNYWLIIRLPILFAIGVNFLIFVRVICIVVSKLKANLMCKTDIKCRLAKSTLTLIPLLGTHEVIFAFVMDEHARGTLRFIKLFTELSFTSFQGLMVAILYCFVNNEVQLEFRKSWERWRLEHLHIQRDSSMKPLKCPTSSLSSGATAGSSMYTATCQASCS

Row | Structure (SMILES) | EC50 (human GLP-1R) | Inhibition (%) of PYY-1119-induced emetic event (female beagle dogs) | Oral Glucose Tolerance Test Percent decrease in blood glucose AUC (%) over 60 mins (C57BL/6J mice)
1 | CC[C@H](C)[C@H](NC(=O)[C@H](CO)NC(=O)[C@H](Cc1ccc(O)cc1)NC(=O)[C@H](CC(=O)O)NC(=O)[C@H](CO)NC(=O)[C@@H](NC(=O)[C@H](Cc1ccccc1)NC(=O)[C@@H](NC(=O)CNC(=O)[C@H](CCC(=O)O)NC(=O)C(C)(C)NC(=O)[C@@H](N)Cc1ccc(O)cc1)[C@@H](C)O)[C@@H](C)CC)C(=O)N[C@@H](C)C(=O)N[C@@H](CC(C)C)C(=O)N[C@@H](CC(=O)O)C(=O)N[C@@H](CCCCN)C(=O)NC(C)(C)C(=O)N[C@@H](CCCCNC(=O)COCCOCCNC(=O)COCCOCCNC(=O)CC[C@H](NC(=O)CCCCCCCCCCCCCCCCC(=O)O)C(=O)O)C(=O)N[C@@H](CCC(N)=O)C(=O)N[C@@H](C)C(=O)N[C@@H](CC(N)=O)C(=O)N[C@@H](Cc1ccccc1)C(=O)N[C@H](C(=O)N[C@@H](CCC(=O)O)C(=O)N[C@@H](Cc1c[nH]c2ccccc12)C(=O)N[C@@H](CC(C)C)C(=O)N[C@@H](CC(C)C)C(=O)N[C@@H](C)C(=O)N[C@@H](CCC(N)=O)C(=O)N[C@@H](CCCNC(=N)N)C(=O)NCC(=O)O)C(C)C [Compound 163] (H-Y[Aib]EGTFISDYSIALDK[Aib]K([AEEA-AEEA-γGlu-C18 diacid])QANFVEWLLAQRG-OH) | 219 nM | 76% (3 nmol/kg) | 
2 | CC[C@H](C)[C@H](NC(=O)[C@H](Cc1ccccc1)NC(=O)[C@@H](NC(=O)CNC(=O)[C@H](CCC(=O)O)NC(=O)C(C)(C)NC(=O)[C@@H](N)Cc1ccc(O)cc1)[C@@H](C)O)C(=O)N[C@@H](CO)C(=O)N[C@@H](CC(=O)O)C(=O)N[C@@H](Cc1ccc(O)cc1)C(=O)N[C@@H](CO)C(=O)N[C@H](C(=O)NC(C)(C)C(=O)N[C@@H](CC(C)C)C(=O)N[C@@H](CC(=O)O)C(=O)N[C@@H](CCCNC(=N)N)C(=O)NC(C)(C)C(=O)N[C@@H](C)C(=O)N[C@@H](CCC(N)=O)C(=O)NC(C)(C)C(=O)N[C@@H](CCCCNC(=O)COCCOCCNC(=O)COCCOCCNC(=O)CC[C@H](NC(=O)CC[C@H](NC(=O)CCCCCCCCCCCCCCCCC(=O)O)C(=O)O)C(=O)O)C(=O)N[C@@H](Cc1ccccc1)C(=O)N[C@H](C(=O)N[C@@H](CC(N)=O)C(=O)N[C@@H](Cc1c[nH]c2ccccc12)C(=O)N[C@@H](CC(C)C)C(=O)N[C@@H](CC(C)C)C(=O)N[C@@H](C)C(=O)N[C@@H](CCC(N)=O)C(=O)N[C@@H](CCCNC(=N)N)C(=O)NCC(=O)O)C(C)C)[C@@H](C)CC [Compound 141] (H-Y[Aib]EGTFISDYSI[Aib]LDR[Aib]AQ[Aib]K([AEEA-AEEA-γGlu-γGlu-C18 diacid])FVNWLLAQRG-OH) |  | 89% (3 nmol/kg) | 16% (3 nmol/kg)
3 | CC[C@H](C)[C@H](NC(=O)[C@H](CCCCN)NC(=O)[C@H](CC(=O)O)NC(=O)[C@H](CC(C)C)NC(=O)[C@H](C)NC(=O)[C@@H](NC(=O)[C@H](CO)NC(=O)[C@H](Cc1ccc(O)cc1)NC(=O)[C@H](CC(=O)O)NC(=O)[C@H](CO)NC(=O)[C@@H](NC(=O)[C@H](Cc1ccccc1)NC(=O)[C@@H](NC(=O)CNC(=O)[C@H](CCC(=O)O)NC(=O)C(C)(C)NC(=O)[C@@H](N)Cc1ccc(O)cc1)[C@@H](C)O)[C@@H](C)CC)[C@@H](C)CC)C(=O)N[C@@H](C)C(=O)N[C@@H](CCC(N)=O)C(=O)NC(C)(C)C(=O)N[C@@H](CCCCNC(=O)COCCOCCNC(=O)COCCOCCNC(=O)CC[C@H](NC(=O)CC[C@H](NC(=O)CCCCCCCCCCCCCCCCC(=O)O)C(=O)O)C(=O)O)C(=O)N[C@@H](Cc1ccccc1)C(=O)N[C@H](C(=O)N[C@@H](CCC(=O)O)C(=O)N[C@@H](Cc1c[nH]c2ccccc12)C(=O)N[C@@H](CC(C)C)C(=O)N[C@@H](CC(C)C)C(=O)N[C@@H](C)C(=O)N[C@@H](CCC(N)=O)C(=O)N[C@@H](CCCNC(=N)N)C(=O)NCC(=O)O)C(C)C [Compound 153] (H-Y[Aib]EGTFISDYSIALDKIAQ[Aib]K([AEEA-AEEA-γGlu-γGlu-C18 diacid])FVEWLLAQRG-OH) |  | 89% (3 nmol/kg) | 58% (3 nmol/kg)
4 | CC[C@H](C)[C@H](NC(=O)[C@H](Cc1ccccc1)NC(=O)[C@@H](NC(=O)CNC(=O)[C@H](CCC(=O)O)NC(=O)C(C)(C)NC(=O)[C@@H](N)Cc1ccc(O)cc1)[C@@H](C)O)C(=O)N[C@@H](CO)C(=O)N[C@@H](CC(=O)O)C(=O)N[C@@H](Cc1ccc(O)cc1)C(=O)N[C@@H](CO)C(=O)N[C@H](C(=O)NC(C)(C)C(=O)N[C@@H](CC(C)C)C(=O)N[C@@H](CC(=O)O)C(=O)N[C@@H](CCCCN)C(=O)N[C@@H](C)C(=O)N[C@@H](C)C(=O)N[C@@H](CCC(N)=O)C(=O)N[C@@H](CCC(N)=O)C(=O)N[C@@H](CCCCNC(=O)COCCOCCNC(=O)COCCOCCNC(=O)CC[C@H](NC(=O)CC[C@H](NC(=O)CCCCCCCCCCCCCCCCC(=O)O)C(=O)O)C(=O)O)C(=O)N[C@@H](Cc1ccccc1)C(=O)N[C@H](C(=O)N[C@@H](CCC(=O)O)C(=O)N[C@@H](Cc1c[nH]c2ccccc12)C(=O)N[C@@H](CC(C)C)C(=O)N[C@@H](CC(C)C)C(=O)N[C@@H](C)C(=O)N[C@@H](CCC(N)=O)C(=O)N[C@@H](CCCNC(=N)N)C(=O)NCC(=O)O)C(C)C)[C@@H](C)CC [Compound 167] (H-Y[Aib]EGTFISDYSI[Aib]LDKAAQQK([AEEA-AEEA-γGlu-γGlu-C18 diacid])FVEWLLAQRG-OH) | 38 nM |  | 2% (3 nmol/kg)
5 | CC[C@H](C)[C@H](NC(=O)[C@H](CO)NC(=O)[C@H](Cc1ccc(O)cc1)NC(=O)[C@H](CC(=O)O)NC(=O)[C@H](CO)NC(=O)[C@@H](NC(=O)[C@H](Cc1ccccc1)NC(=O)[C@@H](NC(=O)CNC(=O)[C@H](CCC(=O)O)NC(=O)C(C)(C)NC(=O)[C@H](Cc1ccc(O)cc1)NC)[C@@H](C)O)[C@@H](C)CC)C(=O)N[C@@H](C)C(=O)N[C@@H](CC(C)C)C(=O)N[C@@H](CC(=O)O)C(=O)N[C@@H](CCCNC(=N)N)C(=O)NC(C)(C)C(=O)N[C@@H](C)C(=O)N[C@@H](CCC(N)=O)C(=O)NC(C)(C)C(=O)N[C@@H](CCCCNC(=O)COCCOCCNC(=O)COCCOCCNC(=O)CC[C@H](NC(=O)CC[C@H](NC(=O)CCCCCCCCCCCCCCCCC(=O)O)C(=O)O)C(=O)O)C(=O)N[C@@H](Cc1ccccc1)C(=O)N[C@H](C(=O)N[C@@H](CC(N)=O)C(=O)N[C@@H](Cc1c[nH]c2ccccc12)C(=O)N[C@@H](CC(C)C)C(=O)N[C@@H](CC(C)C)C(=O)N[C@@H](C)C(=O)N[C@@H](CCC(N)=O)C(=O)N[C@@H](CO)C(=O)N1CCC[C@H]1C(=O)NCC(=O)O)C(C)C [Compound 86] (H-[NMeY][Aib]EGTFISDYSIALDR[Aib]AQ[Aib]K([AEEA-AEEA-γGlu-γGlu-C18 diacid])FVNWLLAQSPG-OH) | 58.9 nM |  | 29% (3 nmol/kg)
